Experimental data: the supplement of paper PMC12645437, “Orthogonal IMiD-Degron Pairs Induce Selective Protein Degradation in Cells” (ACS Chemical Biology, 2025)
This is one part of the list.

B1: Q9UKT9 (peptide)
chain: FQCDVCGACFTQKGNLLRHIKL
B2: Q9UKT9 (peptide)
chain: FHCNICGAWFTQKGNLLRHIKL
B3: Q9UKT9 (peptide)
chain: FRCNQCGAPFTQKGNLLRHIKL
B4: Q9UKT9 (peptide)
chain: FLCEICGRAFTQKGNLLRHIKL
B5: Q9UKT9 (peptide)
chain: FTCEICGRHFTQKGNLLRHIKL
B6: Q9UKT9 (peptide)
chain: LVCEICGFSCTQKGNLLRHIKL
B7: Q9UKT9 (peptide)
chain: FTCPICGHQFTQKGNLLRHIKL
B8: Q9UKT9 (peptide)
chain: FCCEICGRPFTQKGNLLRHIKL
B9: Q9UKT9 (peptide)
chain: FQCNQCGRVFTQKGNLLRHIKL
B10: Q9UKT9 (peptide)
chain: FYCPICGHWFTQKGNLLRHIKL
B11: Q9UKT9 (peptide)
chain: FCCDVCGARFTQKGNLLRHIKL
B12: Q9UKT9 (peptide)
chain: FNCEICGHLFTQKGNLLRHIKL
B13: Q9UKT9 (peptide)
chain: FDCPQCGAIFTQKGNLLRHIKL
B14: Q9UKT9 (peptide)
chain: FECNQCGHTFTQKGNLLRHIKL
B15: Q9UKT9 (peptide)
chain: FACSVCGHAFTQKGNLLRHIKL
B16: Q9UKT9 (peptide)
chain: FCCPVCGAEFTQKGNLLRHIKL
B17: Q9UKT9 (peptide)
chain: FMCEVCGAGFTQKGNLLRHIKL
B18: Q9UKT9 (peptide)
chain: FHCDVCGAIFTQKGNLLRHIKL
B19: Q9UKT9 (peptide)
chain: FRCNQCGHDFTQKGNLLRHIKL
B20: Q9UKT9 (peptide)
chain: FDCEICGANFTQKGNLLRHIKL
B21: Q9UKT9 (peptide)
chain: FRCPQCGAVFTQKGNLLRHIKL
B22: Q9UKT9 (peptide)
chain: LHCPICGFPCTQKGNLLRHIKL
B23: Q9UKT9 (peptide)
chain: FMCPICGRIFTQKGNLLRHIKL
B24: Q9UKT9 (peptide)
chain: LRCPICGFYCTQKGNLLRHIKL
B25: Q9UKT9 (peptide)
chain: FSCEQCGAKFTQKGNLLRHIKL
B26: Q9UKT9 (peptide)
chain: LDCNQCGFVCTQKGNLLRHIKL
B27: Q9UKT9 (peptide)
chain: LWCEICGFNCTQKGNLLRHIKL
B28: Q9UKT9 (peptide)
chain: FQCNQCGHCFTQKGNLLRHIKL
B29: Q9UKT9 (peptide)
chain: FNCDQCGAYFTQKGNLLRHIKL
B30: Q9UKT9 (peptide)
chain: FNCNVCGARFTQKGNLLRHIKL
B31: Q9UKT9 (peptide)
chain: FGCNQCGHIFTQKGNLLRHIKL
B32: Q9UKT9 (peptide)
chain: LFCNQCGFICTQKGNLLRHIKL

These sequences were tested against no compound (DMSO) (assay: log2 fold change of degron read counts, EGFP-low vs EGFP+ sorted cells; higher = lower degron-EGFP level without compound (poor expression or instability)). Settings: compound: DMSO control; 18 h.
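Also: jurkat cells carrying a lentiviral library of mutant zinc finger degrons fused to EGFP plus mCherry, mCherry+ cells FACS sorted, degron abundance counted by next-generation sequencing.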

Row | Sequence | log2 fold change of degron read counts
1 | B1 | -1.39
2 | B2 | 0.0724
3 | B3 | -0.153
4 | B4 | -1.05
5 | B5 | -1.5
6 | B6 | -1.1
7 | B7 | 2.71
8 | B8 | -0.766
9 | B9 | -0.602
10 | B10 | 1.4
11 | B11 | -1.26
12 | B12 | -0.0212
13 | B13 | -0.6
14 | B14 | -1.41
15 | B15 | -0.745
16 | B16 | -0.775

Row | Sequence | log2 fold change of degron read counts
17 | B17 | -0.999
18 | B18 | -1.5
19 | B19 | -0.988
20 | B20 | -1.89
21 | B21 | -0.903
22 | B22 | 1.54
23 | B23 | 0.731
24 | B24 | 1.95
25 | B25 | -1.32
26 | B26 | 0.755
27 | B27 | 1.63
28 | B28 | -0.521
29 | B29 | -0.73
30 | B30 | -0.565
31 | B31 | 1.38
32 | B32 | 2.06
